Source: PubChem BioAssay AID504706 (National Center for Advancing Translational Sciences (NCATS), 2011)
About 200 (0.062%) of roughly 320,000 compounds were called active. The shares of active, inactive and inconclusive entries below differ from those in the screen. Calls come from the whole dose curve; as a rule, active = well fitted activation curve with a large enough effect; inconclusive = small, poorly fitted or top-dose-only effect; inactive = no such curve, though single readings can be large or run the other way. Potencies of inconclusive entries are left out as doubtful fits.

Test: qHTS assay for re-activators of p53 using a Luc reporter; note: nearly all actives have a fitted effect of over 45% in size; for activity change, positive = activation: % of control where 0% means no effect
Conditions: H1299 p53-A138V BP100-luciferase reporter, luminescence, 24 h; series mostly up to 92.2 µM; activity change, positive = activation: at the top concentration
Method in brief: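 H1299 (p53-null), stable ts p53-A138V + BP100-Luc; 1000 cells/well, Opti-MEM/10% FBS; cpd 4 pt, 1:5; 24 h, 37 deg C, 5% CO2; detection reagent 10 min RT; luminescence.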
Potency is the fitted concentration of half-maximal effect; tags give direction and shape of the fitted curve.

SMILES	activity change, positive = activation	Potency
COc1ccccc1NS(=O)(=O)c1cc(NC(=O)c2sccc2C)ccc1N1CCCC1	inactive: -0.195%	–
C(=N\Nc1nn2cnnc2c2ccccc12)/c1ccco1	inactive: 5.67%	–
O=C(Nc1nnc(-c2ccncc2)s1)C1CCCO1 (stereo not given)	–	inconclusive [activator, single point]
O=C(Nc1cccc2ccccc12)NC1CCCCC1	–	inconclusive [activator, single point]
COc1ccc(C(=O)Nc2sc(C)c(C)c2CN2CC(C)OC(C)C2)cc1 (stereo not given)	–	inconclusive [activator, partial curve, poor fit]
CC(C)COC(=O)/C(C#N)=C/c1c[nH]c2ccccc12	–	inconclusive [activator, partial curve, poor fit]
O=C(COC(=O)c1ccc(F)cc1F)NC(=O)Nc1ccc2c(c1)OCCO2	–	inconclusive [activator, partial curve, poor fit]
COc1ccc2nc(/N=C(\N)NC(=O)C(C)(C)C)nc(C)c2c1	–	inconclusive [activator, single point]
COc1ccc2c(=O)c(-c3ccccc3)c(C)oc2c1	–	inconclusive [activator, partial curve, poor fit]
COC(=O)C(C)NC(=O)C12CC3CC(C1)CC(c1ccc(C)cc1)(C3)C2 (stereo not given)	inactive: -0.639%	–
O=C(O)c1cccc(S(=O)(=O)Nc2ccccc2C(=O)NCCc2ccccc2)c1	–	inconclusive [activator, partial curve, poor fit]
Cc1ccsc1CNc1ncnc2ccc(-c3c(C)noc3C)cc12	inactive: -6.05%	–
O=C(CSCc1ccc(F)cc1)NC1CCCC1	–	inconclusive [activator, partial curve, poor fit]
O=C(N/N=C/c1cccc(OC(=O)c2ccc3c(c2)OCO3)c1)c1cncc(Br)c1	–	inconclusive [activator, partial curve]
CC(C)C(=O)NC(=S)Nc1ccccn1	inactive: 14.3%	–
O=C(Nc1cnn(C23CC4CC(CC(C4)C2)C3)c1)c1cnn2cccnc12	–	inconclusive [activator, partial curve, poor fit]
CC(=O)c1c(C)nc(-c2ccc(Cl)cc2)nc1N=CN(C)C	–	inconclusive [activator, partial curve, poor fit]
CCOC(=O)/C(C(=O)Nc1ccccc1Cl)=C1/NC(C)(C)Cc2ccccc21	–	inconclusive [activator, single point]
Cc1sc(NC(=O)c2cccs2)c(C(N)=O)c1C	–	inconclusive [activator, partial curve, poor fit]
CCOC(=O)c1c(C)[nH]c(C(=O)OCc2ccccc2)c1C	–	inconclusive [activator, full curve, poor fit]
Cc1ccc(C)c(OCC(=O)NNC(=O)C2CCC2)c1	–	inconclusive [activator, single point]
COc1cccc(N=c2oc3ccccc3cc2-c2nc3ccccc3[nH]2)c1	–	inconclusive [activator, partial curve, poor fit]
CCOc1ccc(NCc2ccccc2OCc2cccc(F)c2)cc1	–	inconclusive [activator, full curve, poor fit]
Brc1ccc(-c2cn3cccnc3n2)cc1	–	inconclusive [activator, full curve, poor fit]

SMILES	activity change, positive = activation	Potency
CC(=O)Nc1ccc(C2=NN(Cc3nnc(-c4ccccc4)o3)C(=O)SC2)cc1	inactive: -17.8%	–
CCCN1CCC(NC23CC4CC(CC(C4)C2)C3)CC1	–	inconclusive [activator, partial curve, poor fit]
CSc1nc2ncc3c(n2n1)CC1c2ccccc2CCN1C3=O (stereo not given)	inactive: 2.78%	–
O=C(Nc1ccncc1)c1ccc(Cl)cc1	inactive: -1.66%	–
Cc1ccc(C(=O)NCCCN2CCOCC2)o1	–	inconclusive [activator, single point]
O=S(=O)(NC1CCCCC1)c1ccc(Br)s1	–	inconclusive [activator, single point]
O=C(CSc1nnc(NC(=O)c2ccco2)s1)Nc1cccc(F)c1	–	inconclusive [activator, partial curve, poor fit]
Cc1nnc(SCC(=O)N/N=C/c2ccc(-c3ccc(C)c(Cl)c3)o2)s1	–	inconclusive [activator, partial curve, poor fit]
C=CCSc1nnc(NC(=O)c2ccc(N3CCCC3=O)cc2)s1	–	inconclusive [activator, partial curve, poor fit]
CN1CCN(c2nc(-c3cc4ccccc4o3)cs2)CC1	–	inconclusive [activator, partial curve, poor fit]
COc1ccc2nc(N3C(=O)CNC3=S)sc2c1	inactive: 4.45%	–
COc1cccc(-c2ncc3ccccc3c2COC(=O)c2cccc(Br)c2)c1	inactive: -9.9%	–
N#C/C(=C\c1ccccn1)c1nc2ccccc2s1	–	inconclusive [activator, partial curve, poor fit]
O=C(NCSc1ccccc1)c1ccccc1	–	inconclusive [activator, full curve, poor fit]
COc1ccccc1CNC(=O)Cc1ccc(Br)cc1	–	inconclusive [activator, partial curve, poor fit]
Cc1ccc(-c2nnn3c2nc(Cl)c2ccccc23)cc1	inactive: 9.01%	–
CCn1c(=S)[nH]c2c(c1=O)C(C)(C)Cc1ccccc1-2	inactive: -1.51%	–
CCc1ccc(NS(=O)(=O)c2ccc3[nH]cc(C(=O)NCC4CCCO4)c(=O)c3c2)cc1 (stereo not given)	–	inconclusive [activator, partial curve, poor fit]
Cc1ccc(SCc2nc(-c3ccccc3)no2)cc1	–	inconclusive [activator, single point]
COc1ccccc1CNC(=O)COC(=O)c1cc(=O)c2ccccc2o1	inactive: -5.97%	–
CCOc1cc(/C=C/c2cc(C(=O)O)c3ccccc3n2)ccc1OC	–	inconclusive [activator, partial curve, poor fit]
CCCC1CCC(=NNC(=O)OC(C)(C)C)CC1 (stereo not given)	–	inconclusive [activator, partial curve, poor fit]
COc1ccccc1N1CCN(C(=O)c2cccc(S(=O)(=O)Nc3ccccc3F)c2)CC1	inactive: 7.43%	–
CC(=O)c1ccc(-c2ccc(C(=O)NCC(c3ccco3)N(C)C)o2)cc1 (stereo not given)	–	inconclusive [activator, full curve, poor fit]

SMILES	activity change, positive = activation	Potency
O=C(/C=C/c1cccc(F)c1)N1CCc2ccccc21	–	inconclusive [activator, full curve, poor fit]
CCOc1cccc2cc(C(=O)NCc3ccc(OC)cc3)c(=N)oc12	–	inconclusive [activator, single point]
Cc1ccnc(NC(=O)c2ccc(Br)s2)c1	–	inconclusive [activator, partial curve, poor fit]
O=C(c1cccs1)N1CCc2c([nH]c3ccccc23)C1c1ccc(Cl)cc1 (stereo not given)	–	inconclusive [activator, single point]
Cc1csc(C(C#N)C(=O)c2cc3ccccc3o2)n1 (stereo not given)	inactive: 4.34%	–
CCCCn1c(C(C)NC(=O)COC)nc2ccccc21 (stereo not given)	–	inconclusive [activator, single point]
Cc1cc(NC(=O)CCN2C(=O)C3C4C=CC(C4)C3C2=O)c2ccccc2n1 (stereo not given)	inactive: -11.2%	–
c1cncc(CSc2ccc(-c3ccc4c(c3)OCO4)nn2)c1	–	inconclusive [activator, partial curve, poor fit]
Fc1ccccc1-c1nc(-c2ccc(-c3nn[nH]n3)cc2)no1	–	inconclusive [activator, partial curve]
Cc1cc(=O)oc(C)c1C(=O)Nc1ccc2ncccc2c1	inactive: 3.04%	–
CCOc1ccccc1NC(=O)COC(=O)c1cc(C(=O)OC)cc([N+](=O)[O-])c1	inactive: -0.662%	–
Cc1cc(C(=O)CN2C(=O)C(=O)N(CC(C)C)C2=O)c(C)n1C1CC1	–	inconclusive [activator, full curve, poor fit]
Cc1ccc(C(=O)Nc2sc3c(c2C#N)CCCCC3)cc1C	–	inconclusive [activator, full curve, poor fit]
CC(C)SCCCCOc1ccc2ccccc2c1	–	inconclusive [activator, single point]
C/C(=N/O)c1cc(C(C)(C)C)c(O)c(C(C)(C)C)c1	inactive: -2.81%	–
NC(=O)c1cccc2ccccc12	inactive: -2.57%	–
CC1(C)C=Cc2c(ccc3c2OC[C@H](c2ccc(O)cc2O)C3)O1	–	inconclusive [activator, partial curve, poor fit]
NS(=O)(=O)c1ccc2nc(NC(=O)C3CCCO3)sc2c1 (stereo not given)	–	inconclusive [activator, single point]
N/C(=N\OC(=O)c1ccncc1)c1cccc([N+](=O)[O-])c1	inactive: -8.6%	–
O=C(Cc1ccccc1[N+](=O)[O-])OCC(=O)c1c[nH]c2ccccc12	–	inconclusive [activator, partial curve, poor fit]
COc1ccc(OC)c(/C=N/N(C)c2ccccc2)c1	–	inconclusive [activator, partial curve, poor fit]
COc1ccc(CNC(=O)Cc2ccc(NC(=O)C3=C(C)OCCS3)cc2)cc1	–	inconclusive [activator, full curve, poor fit]
